56 sequences from the supplement of paper PMC11417369 can be followed below.

The other results are listed elsewhere or left out.

The assay relates to PF3D7_0420300 AP2 domain 1 (GST-tagged). Description: gcPBM binding intensity (ln(normalized median fluorescence intensity)); higher = stronger DNA binding. The method, boiled down: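 Alexa488 anti-GST antibody, scanned at 488 nm, detected GST-tagged P. falciparum DNA-binding domains that had been expressed in E. coli and incubated for 1 h on an Agilent 4 × 180k array. The array carried primer-extended double-stranded 36-bp intergenic genomic probes and negative controls. Binding intensity is the highest Masliner-normalised natural-log median intensity across replicate spots of either orientation of each probe.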
“ATATCTACTTTTTTATGTACGAAAAAAATACGGATT [XGTACX_site8937]”: the “gcPBM binding intensity (ln)” value was found to be 9.11.

Take “AAAAAAAAAAAAATGTGGACACAATTGTGTGTTTGT [XGTACX_site3563]”: the “gcPBM binding intensity (ln)” value came to 9.7.

“TTTTTGTTAAAATAAATATTATAAATATATTAATAT [TGCATGCA_negctrl_site239]”: the “gcPBM binding intensity (ln)” value is 8.77.

On to “TACATATTTTATAGCACACAAATAATAATATGTAGT [CACACA_site688]”, for which the “gcPBM binding intensity (ln)” value came to 9.35.

On to “GTTGTGGAAAGAAGTTGTACATAAAATATTATATAA [XGTACX_site4352]”, for which the “gcPBM binding intensity (ln)” value is 9.06.

“AGGCCTTTTAGTATTTCACACACGTAAATGCGTATA [CACACA_site1108]”: the “gcPBM binding intensity (ln)” value came to 9.29.

For “CATAAAAATGAACATACACACATATATATATATATA [CACACA_site2498]”, the “gcPBM binding intensity (ln)” value amounted to 9.47.

“TTGCTTTCTTTTTTTTGTACTCATATCTACTATCAT [XGTACX_site7711]”: the “gcPBM binding intensity (ln)” value was found to be 9.65.

As to “CGAGCAAGACGGGGTGCACACAAACTAATATGCCGA [CACACA_site7936]”, the “gcPBM binding intensity (ln)” value amounted to 9.48.

Consider “TACCTTTATTAATAAAGTACATTAATCTGTGTATAC [XGTACX_site8720]”, for which the “gcPBM binding intensity (ln)” value was 9.09.

Consider “ATTATTATGTAGAAGGTGCTATGTTCTATAAATATA [GTGCAC_site9545]”, for which the “gcPBM binding intensity (ln)” value came out at 9.21.

In the case of “CTATGAACACACACATGTACATATATTAACTCGCTA [XGTACX_site8805]”, the “gcPBM binding intensity (ln)” value was 9.61.

Consider “CCACTTGTGTAATGTTGTACAAAAATAAATATATTT [XGTACX_site4598]”, for which the “gcPBM binding intensity (ln)” value was 9.05.

Consider “ATAATTAAAAATAATATATATATAATATGATATTAT [GTGCAC_negctrl_site194]”, for which the “gcPBM binding intensity (ln)” value stood at 9.03.

“TACACATACAGACATACACACATACACATATACACA [CACACA_site6918]”: the “gcPBM binding intensity (ln)” value turned out to be 9.88.

As to “AAAAAAAAAAAAAACACACACACACGCACATATACA [CACACA_site7288]”, the “gcPBM binding intensity (ln)” value turned out to be 10.2.

With “TTTTTTCTTTTTTTTTTTAATTATAAACATGATATT [GTGCAC_negctrl_site144]”, the “gcPBM binding intensity (ln)” value is 9.06.

Turning to “TAAATATATATAACATGTACATAAAATATATATATA [XGTACX_site4431]”, the “gcPBM binding intensity (ln)” value is 9.26.

On to “TATCTTCATTGTTGACGTACAGTATTTCTAAACGTT [XGTACX_site3439]”, for which the “gcPBM binding intensity (ln)” value was found to be 9.26.

For “AATATAAATAAAAAATTGATTTCTTTAAAAAGGTAT [CACACA_negctrl_site1038]”, the “gcPBM binding intensity (ln)” value stood at 9.12.

With “TTGTTCTTTCAAATTATACACACCAAAAAAAAAAAA [CACACA_site3070]”, the “gcPBM binding intensity (ln)” value is 9.14.

Take “TACAAATGAGAAATATGTACATAAAAAAAAAAAAAT [XGTACX_site801]”: the “gcPBM binding intensity (ln)” value came to 9.52.

On to “TAATCATAAAAAAATACACACATATATAATATATAT [CACACA_site1983]”, for which the “gcPBM binding intensity (ln)” value is 9.58.

On to “ATACAAAATCTAATTTGTACACAATGTTTGATTTTT [XGTACX_site5438]”, for which the “gcPBM binding intensity (ln)” value turned out to be 9.23.

In the case of “TATCCATATTTGTTCACACACACACCCATTTATATA [CACACA_site3571]”, the “gcPBM binding intensity (ln)” value was determined as 10.2.

With “ATTTTTATGTTGAAAAGTACTTGAATCCCATGTAAC [XGTACX_site4453]”, the “gcPBM binding intensity (ln)” value was 9.09.

“TATTTATTTATTTAGTGTACATTTATATTTGTTCAT [XGTACX_site7575]”: the “gcPBM binding intensity (ln)” value is 9.42.

On to “TTCTTTTTTTTTAAAACAAACAAACAAACAAACAAA [CACACA_negctrl_site832]”, for which the “gcPBM binding intensity (ln)” value was found to be 8.89.

As to “TTAATCTTTCCTACATGTACACACAGAAAAAAAAAA [XGTACX_site5213]”, the “gcPBM binding intensity (ln)” value was 9.25.

On to “TTTTTATTAAATAAAGCACACACAACAACTTTTCAC [CACACA_site9372]”, for which the “gcPBM binding intensity (ln)” value worked out at 9.72.

For “AAATATAAAAAAAAAAGTACTTTGTTACTTTTCTAT [XGTACX_site6034]”, the “gcPBM binding intensity (ln)” value was determined as 8.84.

For “AAAATAAATATAACCACACACGAAAGAGAGAGAAAA [CACACA_site3272]”, the “gcPBM binding intensity (ln)” value was 10.

In the case of “TAACCATAAGAAGATTGTACATAATAAAAGTATTCT [XGTACX_site1117]”, the “gcPBM binding intensity (ln)” value stood at 9.4.

As to “AACTGCAAAAAAAGACGTACAAATTATTAATTGCAA [XGTACX_site8929]”, the “gcPBM binding intensity (ln)” value came out at 9.24.

With “ATTTAAAATGGTTATACACACATAAAAGGGGAAATG [CACACA_site2649]”, the “gcPBM binding intensity (ln)” value is 9.67.

Turning to “ATATATATATATATATGTACATACCCAATTGTGTAA [XGTACX_site6352]”, the “gcPBM binding intensity (ln)” value was found to be 9.58.

On to “TACAGACATACATACACACATACATATATATATATA [CACACA_site1940]”, for which the “gcPBM binding intensity (ln)” value worked out at 9.67.

For the sequence “ATATAACATGGACACACACACATATATATATATTAT [CACACA_site6135]”, the “gcPBM binding intensity (ln)” value is 10.1.

For “ATACAAATTAAGCCTCAAGTTCTTTTTTTTAACATA [XGTACX_negctrl_site580]”, the “gcPBM binding intensity (ln)” value stood at 9.07.

With “AAAAAAAAGAATTATTGTACAAAAGAACAATAAATA [XGTACX_site1368]”, the “gcPBM binding intensity (ln)” value came to 9.12.

On to “GTGAAATTATATTTTTGTACATATATTATATATTAT [XGTACX_site3387]”, for which the “gcPBM binding intensity (ln)” value was 9.37.

On to “GGTGCACCCATATACACACACAAATACAATGATAAA [CACACA_site1132]”, for which the “gcPBM binding intensity (ln)” value was determined as 9.87.

For “GTATATATCTAAAAATATATATATATATATATATAT [CACACA_negctrl_site788]”, the “gcPBM binding intensity (ln)” value came out at 8.93.

Take “ATCGAAGGGGTACAAAATAAAAATAATTCTTTCAAA [TGCATGCA_negctrl_site373]”: the “gcPBM binding intensity (ln)” value came to 9.02.

On to “AAGTGTTATGAAATATGTACACATATATTATATATA [XGTACX_site6022]”, for which the “gcPBM binding intensity (ln)” value was found to be 9.3.

With “TATAAATAAATATGGAGTACCAAAAAAATTATAAAA [XGTACX_site7581]”, the “gcPBM binding intensity (ln)” value was found to be 9.25.

For the sequence “TTTTTTATTAAAAGCGAAAAAAATGAAAACTTTTTT [GTGCAC_negctrl_site605]”, the “gcPBM binding intensity (ln)” value amounted to 8.77.

“TTTTTAATTAACTTTGTAAACTTATATATATATATA [TGCATGCA_negctrl_site311]”: the “gcPBM binding intensity (ln)” value is 9.13.

On to “AAGGAATATTAAGTGGGTACTAAAAAAAAATTAATT [XGTACX_site331]”, for which the “gcPBM binding intensity (ln)” value was found to be 9.17.

Take “TTAAAGCACCCATGCACACACACAAGGGAAAAGAAA [CACACA_site4289]”: the “gcPBM binding intensity (ln)” value stood at 9.9.

As for GAAGTAGATGGAAAAGTGCACTGTAATGGTTATATT, the “gcPBM binding intensity (ln)” value was found to be 9.31.

For “TGTATATAGAAACATACACACATATTAATTTTACAT [CACACA_site3126]”, the “gcPBM binding intensity (ln)” value worked out at 9.54.

Turning to “ATGTAAATGTTATTATGTACATATTTATTCTTCAAA [XGTACX_site7377]”, the “gcPBM binding intensity (ln)” value stood at 9.15.

For the sequence “TTAAGTCATAAATAAAGTACATAAATATAATATATA [XGTACX_site6304]”, the “gcPBM binding intensity (ln)” value was determined as 9.17.

“TCCAATTAAATATATGAACACACATGTGAACTTTCT [CACACA_site9318]”: the “gcPBM binding intensity (ln)” value is 9.29.

On to “GGGGGTAGGGGAAGAAGTACAATGATCACTACAGTA [XGTACX_site1169]”, for which the “gcPBM binding intensity (ln)” value stood at 9.57.
